Assays:
IL-2 (P) = biological target: T1, IL-2 (P); experiment: SPR (Biacore T-100), receptor-Fc captured by anti-human Fc, IL-2 as analyte, 1:1 binding model
T1 construct: bought; also called IL-2 produced by Peprotech; commercially available IL-2

Wild-type IL-2 = biological target: T2, Wild-type IL-2 (human); experiment: as above
T2 construct: also called wild-type mature human IL-2

B1: human CD122 ECD-Fc-Avitag-8His / human CD132 ECD-Fc-FLAG (Fc fusion)
chain: not shown
notes: in the assay a heterodimer of the two chains; also called hIL-2RβγECD-Fc; IL-2Rβγ ECD-Fc
Q: Which results are given for B1?
A: Kd (IL-2 (P)): 209 pM; Kd (Wild-type IL-2): 215 pM
